Measurements as given in PubChem BioAssay AID624417 (National Center for Advancing Translational Sciences (NCATS), 2012).
About 6,400 (1.6%) of roughly 410,000 compounds were called active. The shares of active, inactive and inconclusive entries below differ from those in the screen. Calls follow the shape of the dose curve; as a rule, active = well fitted inhibition curve with a large enough effect; inconclusive = small, poorly fitted or top-dose-only effect; inactive = no such curve, though single readings can be large or run the other way. Potencies of inconclusive entries are left out as doubtful fits.

biological target: Glucagon-like peptide 1 receptor (Homo sapiens) (UniProt P43220); experiment: qHTS of GLP-1 Receptor Inverse Agonists (Inhibition Mode); details: HEK293 GLP-1R CRE-luciferase, luminescence, 24 h, GLP-1R form is constitutively active; activity change, negative = inhibition: at 38.3 µM (top of the series) unless noted; also: nearly all actives have a fitted effect of over 55% in size
Sequence of UniProt P43220 (P43220 whole entry, looked up): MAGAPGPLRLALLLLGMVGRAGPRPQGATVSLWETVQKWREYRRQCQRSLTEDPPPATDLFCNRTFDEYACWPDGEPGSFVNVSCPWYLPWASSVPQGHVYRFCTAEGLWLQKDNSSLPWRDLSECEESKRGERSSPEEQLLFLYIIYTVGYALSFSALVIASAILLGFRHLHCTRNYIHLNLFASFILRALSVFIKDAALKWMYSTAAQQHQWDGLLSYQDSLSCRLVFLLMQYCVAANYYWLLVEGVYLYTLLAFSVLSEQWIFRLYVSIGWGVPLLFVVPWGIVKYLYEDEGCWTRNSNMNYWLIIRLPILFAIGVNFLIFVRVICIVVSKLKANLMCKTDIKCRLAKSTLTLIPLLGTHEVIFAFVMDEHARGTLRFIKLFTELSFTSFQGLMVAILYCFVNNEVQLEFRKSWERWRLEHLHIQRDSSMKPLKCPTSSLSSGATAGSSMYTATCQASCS
Summary of the method: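 Inverse agonists were sought by their lowering of basal cAMP reporter luciferase output in HEK293 cells stably carrying constitutively active human GLP-1R, after 24 h compound treatment.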
% is scaled to controls: 0 for no effect and ±100 for the full control effect; potency is read from the fitted curve at half-maximal effect; tags tell the direction and shape of the fitted curve.

| Compound | activity change, negative = inhibition | Potency |
| --- | --- | --- |
| Cc1sc2nc(C3CC3)nc(NCCNS(=O)(=O)c3ccccc3)c2c1C | inactive: -27.3% | – |
| CCN(CC)c1ccc(/C=N/NC(=O)c2cccc(N3CCCC3=O)c2)cc1 | – | inconclusive [inhibitor, partial curve] |
| S=C(Nc1ccccc1)c1ccccn1 | – | inconclusive [inhibitor, full curve, poor fit] |
| Cc1c(Cl)cccc1NC(=S)NCc1ccccc1 | – | inconclusive [inhibitor, single point] |
| CN1CCN(S(=O)(=O)c2cc(C(F)(F)F)ccc2Cl)CC1 | inactive: 3.03% | – |
| Cc1ccc(NC(=O)CCN2CCCCC2)cc1 | inactive: -15.2% | – |
| CCOc1ccc(-c2nnc(NC3=NCCCCC3)o2)cc1 | – | inconclusive [inhibitor, single point] |
| Cc1cccc(C(=O)NC(=O)Nc2ccc(-n3nc(C(F)(F)F)cc3C(F)(F)F)cc2)c1 | inactive: 14.4% | – |
| CC(O)[C@@]1(O)CC[C@H]2[C@@H]3CC[C@H]4C[C@@H](O)CC[C@]4(C)C3=CC[C@@]21C (stereo partly drawn) | – | inconclusive [inhibitor, single point] |
| Cc1cc(C)c(NC(=O)C2CCCN2CCOC(=O)c2cccc([N+](=O)[O-])c2)c(C)c1 (stereo not drawn) | – | inconclusive [inhibitor, single point] |
| Oc1ccc(C[C@@H]2CNCCN2CC2(c3ccccc3)CC2)cc1 | – | inconclusive [inhibitor, partial curve, poor fit] |
| NCCSc1c(-c2ccc(Cl)cc2)[nH]c2ccccc12 | – | inconclusive [inhibitor, partial curve, poor fit] |
| Cc1ccccc1OCC(=O)Nc1ccccc1C(=O)NC1CC1 | – | inconclusive [inhibitor, single point] |
| Cc1cc(NC(=O)CC2CCCC2)ccc1Br | – | active: 8.91 µM |
| CC[n+]1c(/C=C2/C=C(C)CC(C)(C)C2)sc2ccc(OC)cc21 | – | inconclusive [inhibitor, single point] |
| Cc1ccccc1-c1nn(-c2ccc(F)cc2F)cc1CNCCN(C)C | – | inconclusive [inhibitor, partial curve, poor fit] |
| OC[C@@H]1[C@@H](c2ccccc2)C(c2cccc(Cl)c2)=NN1c1ccccc1 | – | inconclusive [inhibitor, single point] |
| NC(=O)c1c(NC(=O)c2ccccc2)sc2c1CCN(Cc1ccccc1)C2 | inactive: -7.19% | – |
| Cc1ccccc1S(=O)(=O)N1[C@@H](c2ccc(F)cc2)C(C(=O)O)=CC[C@H]1c1ccc(Cl)cc1 | – | inconclusive [inhibitor, partial curve, poor fit] |
| O=C(NCc1ccc(F)cc1)C(=O)NCC(c1cccs1)S(=O)(=O)c1cccs1 (stereo not drawn) | – | inconclusive [inhibitor, single point] |
| C=C1SC(Nc2c(C)cccc2C)=NC12CCCCC2 | – | inconclusive [inhibitor, partial curve, poor fit] |

| Compound | activity change, negative = inhibition | Potency |
| --- | --- | --- |
| Cc1nn(-c2ccccc2)c2c1C(=O)N(Cc1ccccc1)C(=O)C(C)(C)C2 | – | inconclusive [inhibitor, partial curve, poor fit] |
| CN=c1scc(-c2ccc(OC)cc2)n1/N=C(\C)c1cccnc1 | – | inconclusive [inhibitor, single point] |
| CCOc1ccc(NC(=O)COc2ccc3c(c2)CCC3)cc1OC | – | inconclusive [inhibitor, single point] |
| Cc1ccc(C(=O)CSc2nnc(CNc3nc(-c4ccccc4)cs3)n2C)cc1 | – | inconclusive [inhibitor, partial curve, poor fit] |
| Cc1c(C(=O)N2CCN(S(=O)(=O)c3ccccc3)CC2)oc2ccccc12 | – | inconclusive [inhibitor, single point] |
| CN(C1(C)CCS(=O)(=O)C1)S(=O)(=O)c1ccc2ccccc2c1 (stereo not drawn) | – | inconclusive [inhibitor, partial curve] |
| COCCNC(=O)C(c1ccc(C)cc1)N(C(=O)CCC(=O)Nc1ccccn1)c1cccc(C)c1 (stereo not drawn) | – | inconclusive [inhibitor, partial curve, poor fit] |
| CCc1ccc(/C=c2\s/c(=C\C(=O)C(C)(C)C)[nH]c2=O)cc1 | – | inconclusive [inhibitor, single point] |
| CCCCOc1ccc(C(=O)NCCc2csc(-c3ccc(OC)cc3)n2)cc1 | inactive: -28.4% | – |
| COc1ccc(N(CC(=O)Nc2c(C)cccc2C)S(=O)(=O)c2ccccc2[N+](=O)[O-])c(OC)c1 | – | inconclusive [inhibitor, partial curve, poor fit] |
| CN(C)/C=C/C(=O)c1ccc(-n2cccc2)cc1 | inactive: -26.6% | – |
| CC1Cc2ccccc2N1S(=O)(=O)c1cccc(C(=O)NCC(c2ccco2)N2CCCC2)c1 (stereo not drawn) | – | active: 10 µM |
| CN(C)c1ccc(C(CNS(=O)(=O)c2ccc3ccccc3c2)c2c[nH]c3ccccc23)cc1 (stereo not drawn) | – | inconclusive [inhibitor, single point] |
| CCOC(=O)c1cccc(NC(=O)c2nn(-c3ccc(OC)cc3)c(=O)c3c2c2ccccc2n3C)c1 | inactive: -14.7% | – |
| Cc1c(C(=O)OCCOc2ccccc2)[nH]c2c1C(=O)CC(c1ccccc1Cl)C2 (stereo not drawn) | – | inconclusive [inhibitor, full curve, poor fit] |
| CCN(Cc1ccccc1)S(=O)(=O)c1ccc2[nH]c3c(c2c1)CCCCC3 | – | inconclusive [inhibitor, partial curve, poor fit] |
| Cc1cc(OCCOc2cccc3cccnc23)cc(C)c1Cl | – | inconclusive [inhibitor, single point] |
| CC(Oc1ccccc1Cl)C(=O)Nc1ccc(S(=O)(=O)N2CCN(C)CC2)cc1 (stereo not drawn) | inactive: -14.8% | – |
| Cc1ccc(C)c(N2CCN(C(=O)C3CCN(S(=O)(=O)c4cccc5nsnc45)CC3)CC2)c1 | – | inconclusive [inhibitor, partial curve, poor fit] |
| CC1CCCCC1NC(=O)COCc1cc(-c2cccs2)on1 (stereo not drawn) | – | inconclusive [inhibitor, single point] |
| O=C(Nc1nc2ccccc2n1CCN1CCCCC1)c1ccco1 | – | inconclusive [inhibitor, single point] |

| Compound | activity change, negative = inhibition | Potency |
| --- | --- | --- |
| N#CCSc1ncnc2ccccc12 | – | inconclusive [inhibitor, single point] |
| CN1CCN(C2=Cc3ccc(Cl)cc3Sc3ccc(F)cc32)CC1 | – | inconclusive [inhibitor, full curve, poor fit] |
| COc1cc(Cl)c(CN2CCCC(CO)(Cc3ccccc3)C2)cc1OC (stereo not drawn) | – | inconclusive [inhibitor, single point] |
| Cn1c(=O)c(C(=O)COc2ccc(F)cc2Cl)c(N)n(Cc2ccccc2)c1=O | – | inconclusive [inhibitor, partial curve, poor fit] |
| c1ccc2[nH]c(-c3ccc4c(c3)OCO4)nc2c1 | – | inconclusive [inhibitor, single point] |
| Cc1onc(-c2ccccc2)c1C(=O)NCc1ccc(Cl)cc1 | – | inconclusive [inhibitor, single point] |
| Cc1nnc(-c2cccc(Br)c2)c2cn(-c3ccc(Br)cc3)nc12 | – | inconclusive [inhibitor, full curve, poor fit] |
| Cc1ccc(NC(=O)c2ccccc2OCC(=O)Nc2ccccc2F)cc1S(=O)(=O)N(C)C | – | inconclusive [inhibitor, single point] |
| CN1CCN(C2Cc3ccccc3Sc3cc(C(F)(F)F)ccc32)CC1 (stereo not drawn) | – | inconclusive [inhibitor, full curve, poor fit] |
| CC(C)(C)NC(=O)CCSc1nc(-c2ccc3c(c2)OCO3)cc(C(F)(F)F)n1 | – | inconclusive [inhibitor, single point] |
| O=C(/C=C/c1ccccc1Cl)N(Cc1ccc(Cl)cc1)C1CCS(=O)(=O)C1 (stereo not drawn) | – | inconclusive [inhibitor, partial curve, poor fit] |
| CN(CC(=O)Nc1cccc(F)c1)C(=O)c1cc([N+](=O)[O-])ccc1N1CCCCC1 | – | inconclusive [inhibitor, single point] |
| O=C(CSc1nnc(-c2ccccc2)o1)N1CCCCC1 | inactive: -12.7% | – |
| CCOC(=O)C1=C(C)C(c2cccc(Oc3ccccc3)c2)NC(=S)N1 (stereo not drawn) | – | inconclusive [inhibitor, partial curve, poor fit] |
| CN(C1=C(NC(=O)c2ccc(Cl)cc2)C(=O)c2ccccc2C1=O)c1ccccc1 | – | inconclusive [inhibitor, single point] |
| Cc1ccc(C)c(N(C)S(=O)(=O)c2ccc3[nH]cc(C(=O)NC4CCCC4)c(=O)c3c2)c1 | – | inconclusive [inhibitor, partial curve, poor fit] |
| CCCCN1CN(Cc2ccccc2)CNC1=S | – | inconclusive [inhibitor, partial curve, poor fit] |
| CCC(=O)Nc1cccc(C(=O)/C=C/c2cc(Br)ccc2OC)c1 | – | inconclusive [inhibitor, full curve, poor fit] |
| COc1ccc2nc(C)c3c(c2c1)OC(C)C3 (stereo not drawn) | inactive: 4.97% | – |
| Cc1ccc(NC(=O)Nc2ccccc2F)cc1S(=O)(=O)N1CCOCC1 | – | inconclusive [inhibitor, partial curve, poor fit] |
| O=C(COc1cc(F)ccc1[N+](=O)[O-])N1N=C(c2cccs2)CC1c1ccco1 (stereo not drawn) | – | inconclusive [inhibitor, partial curve, poor fit] |
